# From publication PMC6664820, “Novel natural and synthetic inhibitors of solute carriers SGLT1 and SGLT2” (Pharmacology Research & Perspectives, 2019)
# Structures can show the parent of a compound that is named as a salt. Out of some 1,900 compounds screened, about 40 (2%) showed an effect of 50% or more. The list shows a part of the results. Residues, ends and D or L forms follow the SMILES beside them. *: point of attachment. Tfa = O=C(C(F)(F)F)*
# Molecular target: human SGLT1 (hSGLT1) (human, UniProt P13866)
# Assay: primary screen, percent of control activity; higher = less effect of the substance
# Set-up: single well
# Conditions: 50 µM
# In short: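 Single-point screen at 50 µmol/L in CHO-hSGLT1 cells, with 160 µmol/L 1-NBD-glucose in glucose-free DMEM for 90 min at 37°C. Fluorescence from isopropanol extracts was calibrated, and CHO wild-type uptake was subtracted. Data are percent of uptake without compound.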
# Sequence of human SGLT1 (hSGLT1) (P13866 whole entry, looked up): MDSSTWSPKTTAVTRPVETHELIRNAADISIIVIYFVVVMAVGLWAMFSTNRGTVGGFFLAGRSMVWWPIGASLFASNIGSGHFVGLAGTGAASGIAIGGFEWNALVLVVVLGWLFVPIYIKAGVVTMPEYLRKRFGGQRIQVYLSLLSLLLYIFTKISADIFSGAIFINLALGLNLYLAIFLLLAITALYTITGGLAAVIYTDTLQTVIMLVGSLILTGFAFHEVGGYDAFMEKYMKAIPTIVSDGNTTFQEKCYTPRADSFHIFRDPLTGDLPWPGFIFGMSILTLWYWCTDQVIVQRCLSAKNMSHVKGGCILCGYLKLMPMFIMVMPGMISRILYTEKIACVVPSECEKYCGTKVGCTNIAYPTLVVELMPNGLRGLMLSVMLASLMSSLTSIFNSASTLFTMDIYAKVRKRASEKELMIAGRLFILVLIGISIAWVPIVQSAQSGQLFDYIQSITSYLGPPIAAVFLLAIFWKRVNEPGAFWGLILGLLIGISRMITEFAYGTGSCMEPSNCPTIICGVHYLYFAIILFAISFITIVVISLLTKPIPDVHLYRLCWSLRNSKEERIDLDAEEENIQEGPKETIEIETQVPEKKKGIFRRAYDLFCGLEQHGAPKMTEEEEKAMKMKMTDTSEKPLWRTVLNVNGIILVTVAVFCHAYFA
row,SMILES,NORMALIZED SGLT1 ACTIVITY (%)
1,O=C1C=CC(=O)c2c(O)cccc21,98
2,CO[C@@]1(NC(=O)C(C(=O)[O-])c2ccc(O)cc2)C(=O)N2C(C(=O)[O-])=C(CSc3nnnn3C)CO[C@@H]21.[Na+].[Na+] (some centres unmarked),97
3,CON.Cl,87
4,COP(=S)(OC)Oc1ccc([N+](=O)[O-])cc1,85
5,COC1C=CC23c4cc5c(cc4CN(C[C@H]2O)[C@@H]3C1)OCO5 (some centres unmarked),139
6,CC(=O)Oc1c2c(c(CC=C(C)C)c3c1C(=O)C1=C[C@@H]4CC5C(C)(C)OC(C/C=C(\C)C(=O)O)(C4=O)[C@@]15O3)OC(C)(CCC=C(C)C)C=C2 (some centres unmarked),187
7,COc1ccc(-c2coc3c(OC)c(OC)cc(O)c3c2=O)cc1,303
8,NC[C@@H]1O[C@H](O[C@H]2[C@@H](O)[C@H](O[C@@H]3[C@@H](O)[C@H](N)C[C@H](N)[C@H]3O[C@H]3O[C@H](CO)[C@@H](O)[C@H](O)[C@H]3N)O[C@@H]2CO)[C@H](N)[C@@H](O)[C@@H]1O.O=S(=O)(O)O,113
9,NC[C@H]1CC[C@H](C(=O)O)CC1,87
10,COc1ccc(-c2cc(=O)c3c(O)cc(O)c(-c4cc(-c5cc(=O)c6c(O)cc(O)cc6o5)ccc4OC)c3o2)cc1,168
11,COc1ccc2c(c1)OCC(Cc1ccc(OC)c(OC(C)=O)c1)C2=O (centres unmarked),247
12,COc1ccc([C@H]2Oc3cc(OC)cc(OC)c3C[C@H]2O)cc1,324
13,CC(C)[C@H]1CC[C@H](C(=O)N[C@H](Cc2ccccc2)C(=O)O)CC1,124
14,COC(=O)/C(=C1/OC(=O)C(c2ccccc2)=C1O)c1ccccc1,128
15,COc1cc(O)c(C(=O)c2ccccc2)cc1O,235
16,CC(C)C(NC(=O)C(Cc1ccc(O)cc1)NC(=O)C(NC(=O)C(F)(F)F)C(C)C)C(=O)O (stereo not drawn) (Tfa-Val-Tyr-Val-OH; configuration not given here),97
17,CC1=C(/C=C/C(C)=C/C=C/C(C)=C\C(=O)O)C(C)(C)CCC1,134
18,COc1cc(OC)c2c(=O)c(O)c(-c3ccc(OC)c(OC)c3)oc2c1,99
19,CCCOc1ccc2nc(NC(=O)OC)[nH]c2c1,115
20,Cc1cc(NS(=O)(=O)c2ccc(N)cc2)no1,103
21,CC(=O)O[C@@H]1CC2C(C)(C)C(=O)CC[C@]2(C)C2CC[C@@]3(C)[C@H](c4ccoc4)OC(=O)C4OC43[C@@]21C (some centres unmarked),139
22,CCCCCCc1ccc(O)cc1O.Nc1c2ccccc2nc2ccccc12,383
23,O=C(c1ccc(F)cc1)C1CCN(CCn2c(=O)[nH]c3ccccc3c2=O)CC1,131

row,SMILES,NORMALIZED SGLT1 ACTIVITY (%)
1,COc1ccc2c(c1)OCC(Cc1ccc(OC)c(OC)c1)C2=O (centres unmarked),204
2,CC1(C)C(=O)[C@@H]2O[C@@H]2[C@@]2(C)C1C[C@@H](O)[C@]1(C)C2CC[C@@]2(C)[C@H](c3ccoc3)OC(=O)C3OC321 (some centres unmarked),113
3,C[C@H]1O[C@@H](O[C@H]2[C@@H](O)C[C@H](O[C@H]3[C@@H](O)C[C@H](O[C@H]4CC[C@@]5(C)[C@H](CC[C@@H]6[C@@H]5CC[C@]5(C)[C@@H](C7=CC(=O)OC7)CC[C@]65O)C4)O[C@@H]3C)O[C@@H]2C)C[C@H](O)[C@@H]1O,111
4,CCCCCCCCNC(C)C(O)c1ccc(SC(C)C)cc1 (centres unmarked),71
5,CC1(C)C[C@@H]2C(=O)CC[C@H]3O[C@]3(C)CC[C@H]21,99
6,CC(C)[C@@H]1CC[C@@H](C)CC1=O,106
7,NC(Cc1c[nH]cn1)C(=O)Nc1ccc2ccccc2c1 (centres unmarked),153
8,CC(C)(C)NCC(O)c1cc(Cl)c(N)c(Cl)c1.Cl (centres unmarked),125
9,O.O=P1(N(CCCl)CCCl)NCCCO1 (centres unmarked),175
10,CN(C)c1ccc(C(=C2C=CC(=[N+](C)C)C=C2)c2ccc(N(C)C)cc2)cc1.[Cl-],43
11,CCCC(=O)O[C@]1(C(=O)CO)CC[C@H]2[C@@H]3CCC4=CC(=O)CC[C@]4(C)[C@H]3[C@@H](O)C[C@@]21C,134
12,CC(C)=CCCC1(C)C=Cc2c(O)c3c(c(CC=C(C)C)c2O1)OC12C(CC4CC1C(C)(C)OC2(C/C=C(/C)C(=O)O)C4O)C3=O (centres unmarked),216
13,COc1ccc2ccc(=O)oc2c1CC=C(C)C,103
14,O=c1[nH]c(=O)n([C@H]2C[C@H](O)[C@@H](CO)O2)cc1C(F)(F)F,115
15,Cc1nnc(SCC2=C(C(=O)[O-])N3C(=O)[C@@H](NC(=O)Cn4cnnn4)[C@H]3SC2)s1.[Na+],79
16,O=c1[nH]c2ccccc2n1CCCN1CCC(n2c(=O)[nH]c3cc(Cl)ccc32)CC1,196
17,CC(=O)OCC(=O)[C@@]1(O)[C@H](OC(C)=O)C[C@H]2[C@@H]3CCC4=CC(=O)C=C[C@]4(C)[C@@]3(F)[C@@H](O)C[C@@]21C,107
18,CO[C@H]1C[C@H](O[C@H]2[C@H](C)[C@@H](O[C@@H]3O[C@H](C)C[C@H](N(C)C)[C@H]3O)[C@@H](C)C[C@@]3(CO3)C(=O)[C@H](C)[C@@H](O)[C@@H](C)[C@@H](C)OC(=O)[C@@H]2C)O[C@@H](C)[C@@H]1O.O=P(O)(O)O,104
19,CC1=CC(=O)CC(C)(C)C1(O)/C=C/C(C)=C\C(=O)O (mixture of isomers),104
20,CC(C)C1=CC2=CCC3[C@](C)(CCC[C@]3(C)C(=O)O)C2CC1 (some centres unmarked),230
21,COc1cc(NS(=O)(=O)c2ccc(N)cc2)nc(OC)n1,102
22,CCOc1ccc(Cc2nccc3cc(OCC)c(OCC)cc23)cc1OCC.Cl,107
23,CC(C)=CCC/C(C)=C/CC/C(C)=C/CO,99

row,SMILES,NORMALIZED SGLT1 ACTIVITY (%)
1,Clc1ccc(Cl)cc1,115
2,Cc1cc(=O)c2c(O)c(C)c(O)cc2o1,210
3,CC(=O)N[C@@H]1[C@@H](C(O)[C@H](O)CO)O[C@](O)(C(=O)O)C[C@@H]1O (some centres unmarked),112
4,CCCC(C)C1(CC)C(=O)N=C(O)NC1=O (centres unmarked),161
5,COc1ccc2cc1Oc1ccc(cc1)C[C@H]1c3cc(c(OC)cc3CCN1C)Oc1c(OC)c(OC)cc3c1[C@H](C2)N(C)CC3,165
6,CC(=O)Nc1ccc(S(=O)(=O)Nc2ccc([N+](=O)[O-])cc2)cc1,131
7,C[C@]12CCC3c4ccc(OS(=O)(=O)[O-])cc4CCC3C1CC[C@H]2O.[Na+] (some centres unmarked),106
8,Nc1ccc(C(=O)NCC(=O)O)cc1,125
9,C[C@H](N)[C@H](O)c1ccccc1.Cl,131
10,COC(=O)C(N)CS.Cl (centres unmarked),118
11,CCc1ccc2c(O)c3c(cc2c1C(=O)OC)C(=O)c1c(O)ccc(O)c1C3=O,123
12,CC(C)(Sc1cc(C(C)(C)C)c(O)c(C(C)(C)C)c1)Sc1cc(C(C)(C)C)c(O)c(C(C)(C)C)c1,104
13,CCC1(C2=NCCN2)Cc2ccccc2O1.Cl (centres unmarked),98
14,CC(CCc1ccccc1)NCC(O)c1ccc(O)c(C(N)=O)c1.Cl (centres unmarked),76
15,CC(=O)Oc1cccc(C(=O)O)c1OC(C)=O,57
16,CC(C)=CC1C(CO)C1(C)C (centres unmarked),93
17,COc1cc2ccc(=O)oc2cc1O,144
18,C[C@]12CCC(=O)C=C1C=C[C@@H]1[C@@H]2CC[C@@]2(C)[C@H]1CC[C@@]21CCC(=O)O1,93
19,C/C=C/C(=O)N(CC)c1ccccc1C,80
20,NC(=O)N1c2ccccc2CC(=O)c2ccccc21,206
21,Cc1ccc(C)c(OCCCC(C)(C)C(=O)O)c1,246
22,CCCCOC(=O)c1ccccc1C(=O)OCCCC,88
23,Nc1nc2nc[nH]c2c(=S)[nH]1,106

row,SMILES,NORMALIZED SGLT1 ACTIVITY (%)
1,CN(C)CCOC(C)(c1ccccc1)c1ccccn1.O=C(O)CCC(=O)O (centres unmarked),85
2,COP(=S)(OC)SCn1nnc2ccccc2c1=O,123
3,O=C(CC[N+](=O)[O-])OC[C@H]1O[C@@H](O)[C@H](OC(=O)CC[N+](=O)[O-])[C@@H](OC(=O)CC[N+](=O)[O-])[C@@H]1OC(=O)CC[N+](=O)[O-],143
4,COc1c(OC)c2occc2c2oc(=O)ccc12,229
5,Cn1c([N+](=O)[O-])cnc1COC(N)=O,82
6,COc1ccccc1-c1cc(=O)c2cccc(OC)c2o1,233
7,COC(=O)C[C@H]1C(C)(C)C2(O)OC34CC2C(=O)[C@]1(C)C3CC[C@]1(C)C4=CC(=O)O[C@H]1c1ccoc1 (some centres unmarked),104
8,COc1cc(-c2coc3cc(OCc4ccccc4)c(OC)c(O)c3c2=O)cc(O)c1OC,301
9,CCCc1ncc(C[n+]2ccccc2C)c(N)n1.Cl.[Cl-],87
10,COc1c(O)cc(O)cc1O,110
11,Cl.Cl.NCCSSCCN,116
12,CC1COc2c(N3CCN(C)CC3)c(F)cc3c(=O)c(C(=O)O)cn1c23 (centres unmarked),162
13,CCOP(=S)(OCC)Oc1ccc2c(C)c(Cl)c(=O)oc2c1,118
14,CCCCCC1C(=O)CCC1CC(=O)O (centres unmarked),135
15,NC(=O)c1ccc([N+](=O)[O-])cc1Cl,119
16,Cc1ncc([N+](=O)[O-])n1CC(C)O (centres unmarked),92
17,COc1cc(O)c2c(=O)c(-c3ccccc3)coc2c1,133
18,CCC(=O)OCC(=O)C1(OC(=O)CC)C(C)CC2C3CCC4=CC(=O)C=CC4(C)C3(Cl)C(O)CC21C (centres unmarked),216
19,CC(=O)O[C@@H]1C2CC[C@@H]3C1(C[C@@H](O)[C@@]1(O)[C@@H](C[C@H](O)C1(C)C)[C@]3(C)O)C[C@@]2(C)O (some centres unmarked),106
20,CC(=O)OCC(=O)[C@@]12OC3(CCCC3)O[C@@H]1C[C@H]1[C@@H]3CCC4=CC(=O)C=C[C@]4(C)[C@@]3(F)[C@@H](O)C[C@@]12C,179
